Measurements published in PubChem BioAssay AID1347071 (National Center for Advancing Translational Sciences (NCATS), 2019).
Among all 410,000 compounds or so, about 260 (0.063%) were called active. Inconclusive results, whose numbers are uncertain, are shown with a selection of clear calls. The call rests on the fitted dose curve; in most records, active means well fitted activation curve with a large enough effect; inconclusive means small, poorly fitted or top-dose-only effect; inactive means no such curve, though single readings can be large or run the other way. Potencies of inconclusive entries are left out as doubtful fits.
Potency means the concentration at half of the fitted maximal effect; tags describe the fitted curve by direction and shape.

Assay: qHTS for compounds that reverse cellular toxicity of Amyloid beta (A-beta) peptide in yeast: Primary Screen; further: nearly all actives have a fitted effect of over 55% in size
Details: yeast expressing A-beta42, growth rescue, OD600, 48 h; growth rescue: at 46.1 µM (top of the series), 0% DMSO, 100% iron-clioquinol control
How it was run: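 Yeast A-beta toxicity model in growth medium with pinned compounds, 48 h at 30 C; growth read as absorbance at 600 nm. Normalized to FeCl3/clioquinol equimolar mix (positive) and DMSO (negative).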
In the case of `COCCCN1C(=O)C(=O)/C(=C(/O)c2ccc(C)cc2)C1c1ccccc1` (stereo not given), the Potency was inconclusive [activator, partial curve, poor fit]. With `NNC(=O)c1csc(Cc2c(Cl)sc3ccc(Cl)cc23)n1` the Potency was inconclusive [activator, single point]. In the case of `Cn1nc(C(=O)N2CCN(c3ccccc3)CC2)c2c1-c1ccccc1SC2`, the “growth rescue” value was inactive: 8.69%. With `COc1ccc(C(=O)Sc2ccc(C)cc2)cc1OC` the “growth rescue” value was inactive: -9.84%. In the case of `O=C(NC1CCSc2ccccc21)c1ccc([N+](=O)[O-])cc1` (stereo not given), the Potency was inconclusive [activator, single point]. With `C=CCNC(=O)/C(C#N)=C/c1ccc2c(c1)OCCO2` the Potency was inconclusive [activator, partial curve, poor fit]. In the case of `C=CCNC(=S)N1CCC(Cc2ccccc2)CC1`, the Potency was inconclusive [activator, single point]. For `O=S(=O)(Nc1cccc2ncccc12)c1cccs1`, the Potency was inconclusive [activator, full curve, poor fit]. For `CCOC(=O)N1CCN(C(=O)C2CCN(S(=O)(=O)c3c(C)cc(C)cc3C)CC2)CC1`, the Potency was inconclusive [activator, single point]. With `O=S(=O)(NCCSc1ccccn1)c1ccc(Cl)cc1` the Potency was inconclusive [activator, single point]. In the case of `Oc1ccc(Cl)cc1-c1cc(-c2ccccc2)n[nH]1`, the Potency was inconclusive [activator, full curve, poor fit]. For `COc1ccc(/C(N)=N/OC(=O)CCC2CCCC2)cc1OC`, the “growth rescue” value was inactive: -8.95%. With `Cc1ccc(C)c(C(Nc2ccccc2)c2ccc3ccc(C)nc3c2O)c1` (stereo not given) the Potency was inconclusive [activator, single point]. With `CC(C)=N/N=C1/NC(=O)C(c2ccc(Cl)cc2)S1` (stereo not given) the Potency was inconclusive [activator, single point]. In the case of `COC(=O)c1cc(OC)c(OC)cc1NC(=O)C(C)Sc1ccc(C)cc1` (stereo not given), the “growth rescue” value was inactive: 8.77%. With `Cc1cccc(N(C)C(=O)C(Cc2ccccc2)NS(=O)(=O)c2cccc3nsnc23)c1` (stereo not given) the “growth rescue” value was inactive: -8.77%. For `COc1ccc(N2CCN(C(=O)Cc3c(C(=O)O)c(C)cn3C)CC2)cc1`, the “growth rescue” value was inactive: -7.34%. With `CN(C(=S)NC1CCCCC1)C1(c2ccccc2Cl)CCCCC1=O` (stereo not given) the Potency was inconclusive [activator, partial curve]. For `CCc1cccc(C)c1NC(=S)NCC1CCN(c2ccc(OC)cc2)C1` (stereo not given), the Potency was inconclusive [activator, partial curve, poor fit]. In the case of `CN(Cc1ccc(Cl)c(Cl)c1)C(=O)c1cccc(S(=O)(=O)N2CCN(Cc3ccccc3)CC2)c1`, the Potency was inconclusive [activator, partial curve, poor fit]. With `COc1ccccc1N(C)S(=O)(=O)c1ccc(C(=O)Nc2ccc(C)cc2C)cc1` the “growth rescue” value was inactive: 9.61%. For `Fc1ccccc1CN(CCN1CCOCC1)C(=S)Nc1ccccc1Cl`, the Potency was inconclusive [activator, partial curve, poor fit]. In the case of `N#Cc1cnc(NCc2ccc(Cl)cc2Cl)nc1`, the “growth rescue” value was inactive: 0.146%. In the case of `CN(C(=O)c1cc2c(s1)-c1ccc(Cl)cc1SC2)c1cccc(C(F)(F)F)c1`, the “growth rescue” value was inactive: -3.91%. For `c1ccc(Nc2nc(-c3ccncc3)cs2)cc1`, the Potency was inconclusive [activator, partial curve, poor fit]. For `CCc1ccc(N/C(SC)=C(/C#N)C(N)=O)cc1`, the “growth rescue” value was inactive: -4.58%. In the case of `CCC(C)NC(=O)c1cc2c(=O)n3cccc(C)c3nc2s1` (stereo not given), the “growth rescue” value was inactive: -0.0287%. With `CCc1nn2c(=O)cc(COC(=O)c3ccccc3NC(=O)C3CCCCC3)nc2s1` the “growth rescue” value was inactive: -6.09%. With `Cc1ccc(Nc2c(-c3ccccn3)nc3cccc(C)n23)cc1` the Potency was inconclusive [activator, single point]. For `Cc1ccc(Cl)cc1-n1ncc2c(Nc3cccc(C)c3C)ncnc21`, the Potency was inconclusive [activator, partial curve, poor fit]. For `CN(c1cc(Cl)c2c(c1)OCO2)c1cc2c(c3c1ccn3C)C1CCC2C1` (stereo not given), the Potency was inconclusive [activator, single point]. For `CCc1ccccc1NC(=O)c1cc(S(=O)(=O)N2CCCc3ccccc32)ccc1F`, the Potency was inconclusive [activator, single point]. For `O=C1C2=C(NC(=S)NC2c2ccc(Cl)cc2)NC(c2ccc(Cl)cc2)N1c1ccc(Cl)cc1` (stereo not given), the “growth rescue” value was inactive: -37.5%. For `O=C(C1CCN(CCCc2ccccc2)CC1)N(CCc1ccccc1)Cc1ccccc1`, the Potency was inconclusive [activator, partial curve, poor fit]. With `OCCOCCOCCn1c2ccccc2c2ccccc21` the growth rescue was inconclusive: 30.6% [activator]. In the case of `CC(=O)c1ccc(NC(=O)CN(C)S(=O)(=O)c2cccc3nsnc23)cc1`, the “growth rescue” value was inactive: -10.2%. In the case of `COc1ccc(NC(=O)CCn2c(=O)c3cccn3c3ccccc32)c(OC)c1`, the Potency was “inactive”. With `CC(C)Sc1nc2sc3c(c2c2nnc(SCC(=O)NCc4ccco4)n12)CCCC3` the “growth rescue” value was inactive: -12.4%. For `Cc1ccc(C)c(CN2C(=O)NC3(CCCCCC3)C2=O)c1`, the Potency was inconclusive [activator, partial curve]. In the case of `CC(=O)Nc1ccc(OCc2cccc3ccccc23)cc1`, the Potency was inconclusive [activator, partial curve, poor fit]. In the case of `Cc1ccc(S(=O)(=O)N(C)C)cc1NC(=S)NC(C)CCCC(C)C` (stereo not given), the Potency was inconclusive [activator, single point]. With `CN(C)CCCOC(=O)c1ccc(Br)cc1` the Potency was inconclusive [activator, partial curve, poor fit]. For `CC(C)C(c1nnnn1Cc1ccccc1)N(CCCO)Cc1cc2cc3c(cc2[nH]c1=O)OCO3` (stereo not given), the Potency was inconclusive [activator, single point]. For `CCN(CC)C(=O)c1csc(Nc2cccc3ccccc23)n1`, the Potency was inconclusive [activator, single point]. With `Cc1ccc(-c2cn(-c3ccccc3F)c(=S)[nH]2)cc1` the Potency was inconclusive [activator, partial curve, poor fit].
